The whole screen tested about 2,800 compounds, of which fewer than 10 were called active. The call rests on the fitted dose curve; in most records, active means well fitted curve in the direction sought with a large enough effect; inconclusive means small, poorly fitted or top-dose-only effect, or another doubt; inactive means no such curve, though single readings can be large or run the other way. Some of the results follow.
target: Metallo-beta-lactamase type 2 (Klebsiella pneumoniae) (UniProt C7C422); test: qHTS to identify inhibitors of the New Delhi Metallo-beta-lactamase (NDM): Meropenem screen against the machine-based learning selections.; further: % of control where 0% means no effect; details: Purified NDM-1, meropenem hydrolysis, absorbance 300 nm; at 38.4 µM (top of the series) unless noted
Outline: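 NDM-1 (2 nM final) in 50 mM HEPES pH 7.0, 1 uM Zn2SO4, 0.01% Tween20 was preincubated with compounds for >30 min. Nitrocefin (16.7 uM final) was read at 485 nm after 15 min, and meropenem (50 uM final) at 300 nm after 30 min.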

Sequence of UniProt C7C422 (C7C422 whole entry, looked up): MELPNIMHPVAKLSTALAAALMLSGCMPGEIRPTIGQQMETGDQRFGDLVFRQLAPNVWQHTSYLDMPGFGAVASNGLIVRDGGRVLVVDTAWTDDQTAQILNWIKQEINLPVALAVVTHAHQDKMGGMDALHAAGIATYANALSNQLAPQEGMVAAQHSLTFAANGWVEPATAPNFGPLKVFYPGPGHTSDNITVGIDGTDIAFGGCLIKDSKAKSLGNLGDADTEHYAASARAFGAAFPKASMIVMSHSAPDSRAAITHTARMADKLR

Activity change, negative = inhibition, inactive:
CC(=O)N1CCC(N[C@H]2C[C@@H](Cc3cc(CN(C)C)on3)C2(C)C)CC1 0.329% [at 57.5 µM]
Cc1cccc(-c2noc([C@@H]3Cc4nc[nH]c4CN3C(=O)COCC(=O)O)n2)c1 48.8% [at 57.5 µM]
CC1=C[C@@H](CNCc2ccncc2)[C@H](C(C)C)C[C@H]1Cc1nnc(-c2ccc(C)cc2)o1 0.0973% [at 57.5 µM]
COc1ccc(NC(=O)N[C@H]2CO[C@H]3[C@@H]2OC[C@@H]3n2cc(CN(C)Cc3ccccc3)nn2)cc1 -1.08%
Cc1ccc2c(c1)N1C(=O)OC[C@@H]1CCN(C(=O)NC1CCCCC1)C2 1.66% [at 57.5 µM]
CC(Cn1cncn1)NC(=O)c1ccc(S(=O)(=O)NCCO)cc1 (stereo not given) -0.61%
CC(=O)N1CCC(N[C@H]2CC(C)(C)[C@@H]3C[C@@](C)(O)CC[C@]23CCC(=O)NCCN2CCOCC2)CC1 -0.0233%
CC(C)N1C[C@H](O)C[C@H]1c1nc(-c2ccc(C(F)(F)F)cc2)no1 4.8% [at 57.5 µM]
COCC(=O)Nc1ccc([C@H]2OCC(=O)N(CC(C)C)[C@@H]2CO)cc1 0.753% [at 57.5 µM]
Cc1ccn2c(C(=O)N3CCCC(c4[nH]ncc4-c4ccccc4)C3)nnc2n1 (stereo not given) 3.57%
OC(c1cccc(C(F)(F)F)c1)c1nc(Nc2ccc(F)cc2F)n[nH]1 (stereo not given) -1.49% [at 57.5 µM]
COc1ccc(-n2nc(C)c([C@@H]3C=C[C@@H](NS(=O)(=O)c4cccs4)C3)c2C)cc1 1.5% [at 57.5 µM]
COc1cccc(-c2ccc(CN3CC4CCC(C3)N4c3ccc(C(F)(F)F)cc3)cc2)c1 1.66%
c1ccc(CN2CCNc3cnc(Nc4ccc(N5CCOCC5)cc4)cc3C2)cc1 13% [at 57.5 µM]
O=C1CC(C(=O)O)C2(CCN(c3cc(C(=O)O)c4ccccc4n3)CC2)N1 (stereo not given) 8.2%
COc1ccc(NC(=O)NCC2CCCN(C(C)C)C2)cc1OC (stereo not given) -0.512%
NC1(Cc2cc(CN3CCN(c4ccccc4)CC3)on2)COC1 0.883% [at 57.5 µM]
COC(=O)[C@@H]1Cc2ncn(C(C)C)c2CN1S(=O)(=O)c1ccc(F)cc1 12.5% [at 57.5 µM]
Cc1nc2c(C(=O)N3CCC(c4cc(CC(=O)O)[nH]n4)CC3)cccc2[nH]1 67.5%
Clc1ccccc1-c1cc(C2CCN(Cc3cc4n(n3)CCNC4)CC2)[nH]n1 45.2%
O=C(O)c1ccc(CC2CCN(Cc3ccncc3)C2)cc1 (stereo not given) -0.495%
CCCn1cc(S(=O)(=O)N2C[C@H](C3CC3)[C@@H](N)C2)cn1 0.478%
O=C(CC[C@@H]1CNC(=O)[C@@H]2C[C@H](NC(=O)Nc3ccsc3)CN12)NCc1cccs1 1.27%
CCOc1ccc(NC(=O)Cn2c(N3CCc4ccccc4C3)nc(C)cc2=O)cc1 3.94%
OCC1CN(Cc2cccnc2)CCC12CCN(Cc1cccc(O)c1)CC2 (stereo not given) 3.66%
Cc1cc(C(=O)NCCc2csc(-c3cccnc3)n2)cc(S(N)(=O)=O)c1C 2.03%
COc1ccc(C(=O)N[C@@H]2CCC[C@@H]2C(=O)N2CCN(C(=O)c3ccco3)CC2)cn1 -0.601%
CCCN(C)c1nccnc1OC1CCN(C(=O)c2ccc(OC)nc2OC)C1 (stereo not given) 14.2%
COCCOc1cc(-c2noc([C@@H]3CCCN3Cc3ccc(C(=O)O)cc3)n2)ccn1 43.6% [at 57.5 µM]
O=C(NCc1ccccc1F)C1CCN(C(=O)c2ncn3c2COC(c2ccccc2)C3)CC1 (stereo not given) -0.0731%
CC(=O)N1CCN(C(=O)C[C@@H]2CCNC[C@@H]2Cc2cc(-c3ccccc3)on2)CC1 0.0659% [at 57.5 µM]
O=C(O)C[C@@H]1CCN(C(=O)C2CCCCC2)C[C@@H]1CCN1CCOCC1 12.8% [at 57.5 µM]
Cc1cc(CNC(=O)[C@@H]2CCC[C@@H](NCc3nccs3)CN(C)C(=O)C2)no1 0.105% [at 57.5 µM]
O=C(Cc1ccccc1O)NCc1cccnc1Oc1ccc(F)cc1F 0.857%
CN1CCN(S(=O)(=O)c2cccc(C(=O)N3C[C@@H]4CCN[C@@H]4C3)c2)CC1 11.5%
COc1ccc(CCC(=O)N2CCC(N3CC4CC(C3)[C@H]3CCCC(=O)N3C4)CC2)cc1 (stereo not given in full) -0.571%
CC1=C[C@@H](CNCc2ccncc2)[C@H](C(C)C)C[C@H]1Cc1nnc(-c2ccc([N+](=O)[O-])cc2)o1 -3.24%
COc1ccc(CN2CCNc3cc(-c4ccccc4)ncc3C2)cc1O -3.28% [at 57.5 µM]
CCc1noc([C@@H]2CC(F)(F)CN2C(=O)c2ccoc2C)n1 16.8%
O=C(NCc1nc(-c2cnccn2)n[nH]1)[C@H]1CNC[C@H](C(=O)N2CCOCC2)C1 28.1%
Nc1ccsc1C(=O)N[C@H](Cc1ccncc1)C1CC(O)C1 (stereo not given in full) 49.4%
COc1ccccc1CNC(=O)c1c(OCC(C)C)cc(=O)n2c1CCCCC2 2.69%
Cc1ccc(C2Cn3nnc(-c4noc(-c5ccncc5)n4)c3CO2)cc1 (stereo not given) -0.101%
CCN1c2cc(C(=O)Nc3ccc(C)c(C)c3)ccc2C(=O)N2CCCCC21 (stereo not given) 1.15%
O=C(N[C@H](c1ccccn1)C1CC(O)C1)c1ccc2c(c1)ncn2CCO (stereo not given in full) 0.183%
O=C(c1ccoc1)N1CCCC(CCc2ccc(F)c(F)c2)C1 (stereo not given) -0.603%
CC[C@H]1CN(C(=O)NC2CCCCC2)CC[C@H]1CC(=O)Nc1nccs1 29.4% [at 57.5 µM]
Cn1cc(CN2CCOC[C@H]2c2nc(C(C)(C)C)co2)c2ccccc21 3.07% [at 57.5 µM]
COCCC1(NS(C)(=O)=O)CCN(C(=O)c2cccc(C#N)c2)CC1 0.131%
Cc1cc(C)n2ncc(CN3CCCC3c3nc(-c4ccncc4)no3)c2n1 (stereo not given) -0.923%
Cc1nn(-c2ccccc2)nc1C(=O)N[C@H](C)c1onc(-c2cccnc2)c1C(=O)O 10.3%
O=C(O)C[C@@H]1CCN(C(=O)C2CCCC2)C[C@@H]1CCN1CCN(c2ccccn2)CC1 42.8% [at 57.5 µM]
O=C1NC[C@@H](CCC(=O)N2CCCC2)N2C[C@@H](NCc3cccc(Cl)c3)C[C@@H]12 -0.342% [at 57.5 µM]
Cc1cc(C(=O)N[C@@H]2C[C@H](Cn3cc(C4CC4)nn3)[C@@H](O)[C@H]2O)no1 30.9% [at 57.5 µM]
Cc1ccn2c(C(=O)N[C@H](Cc3ccccn3)C3CC(O)C3)nnc2n1 (stereo not given in full) 16.3%
CO[C@@H]1CO[C@H]2[C@@H]1OC[C@@H]2NC(=O)Nc1cccc(C(F)(F)F)c1 3.28% [at 57.5 µM]
Cc1ccc(C(=O)N2CC3CC(C2)[C@H]2CCCC(=O)N2C3)s1 (stereo not given in full) 4.05%
CC(=O)N1CCCN(C(=O)[C@@H]2Cc3cn(C)c4cccc(c34)[C@H](CC(C)C)N2)CC1 5.93% [at 57.5 µM]
O=C1Cc2c(-c3cccc(CO)c3)n[nH]c2CN1c1ccccc1 5.96% [at 57.5 µM]
Nc1nc(CCC(=O)N2CC[C@@H](NC(=O)c3cccnc3)[C@H](O)C2)cs1 -2.13%
COCCN1C(=O)[C@@H]2C[C@@H](CN2Cc2ccc(OC)nc2)Oc2ccccc21 -1.04% [at 57.5 µM]
COc1cccc2c1OCC(C(=O)N1CC(Oc3ccccc3C)C1)C2 (stereo not given) 0.534%
COCCn1c(CO)nnc1C1CC(NC(=O)c2ccc(F)cc2F)C1 (stereo not given) 1.77%
COc1ccc(CC(=O)N2CCC(N3CC4CC(C3)[C@H]3CCCC(=O)N3C4)CC2)cc1 (stereo not given in full) 0.629%
CC[C@@]1(C(=O)O)C[C@H](C(=O)NC(CO)CO)[C@H](c2ccc(OC)cc2)N1C 24%
O=C(c1ccc2[nH]ccc2c1)N1CCC2(CC1)N=C(c1ccc(Br)cc1)NO2 -0.0584%
CNc1ccc(-c2noc([C@@H]3CCCN3Cc3cccc(OC)c3)n2)cn1 11.6% [at 57.5 µM]
COC[C@H]1CCCN1Cc1nc(C2(O)CCN(Cc3ccccc3O)CC2)cs1 38.3% [at 57.5 µM]
CO[C@H]1[C@H](NC(=O)COc2ccccc2)c2ccccc2C12CCNCC2 1.6%
Cc1ccc(-c2noc([C@@H]3Cc4nc[nH]c4CN3Cc3ccccc3)n2)cc1 51.9% [at 57.5 µM]
O=C(O)Cn1ccc2cc(OCc3cccc(-c4ccc(F)cc4F)c3)cnc21 13.2% [at 57.5 µM]
Cc1noc(C)c1C(=O)N[C@H]1[C@H](O)[C@H](O)C[C@@H]1c1cccnc1 0.0391% [at 57.5 µM]
CC(=O)N1C[C@@H]2CCCN3CCC[C@@H]([C@H]23)[C@H]1CCCC(=O)N(C)Cc1ccc(N2CCOCC2)cc1 0.228%
COc1ccc([C@H]2C[C@@H](O)[C@@H](O)[C@@H]2NC(=O)C2CCC2)cc1 -1.07% [at 57.5 µM]
Cc1ccc(CN2C(=O)[C@@H]3C[C@@H](O)CN3C3(CN(C4Cc5ccccc5C4)C3)C2=O)o1 4.1% [at 57.5 µM]

— PubChem BioAssay AID1794842 (National Center for Advancing Translational Sciences (NCATS), 2023)
